About 65 (0.1%) of roughly 45,000 compounds were called active. The call rests on the fitted dose curve; in most records, active means well fitted activation curve with a large enough effect; inconclusive means small, poorly fitted or top-dose-only effect; inactive means no such curve, though single readings can be large or run the other way. The list shows a part of the results.
Target: Galactocerebrosidase (Homo sapiens) (UniProt P54803)
Assay: A Novel Cell-Based Assay to Identify Small Molecules for B -Galactocerebrosidase; further: 0% is about no effect; nearly all actives have a fitted effect of over 65% in size
Conditions: 145M-Twi-hGALC-G270D cells (Twitcher mouse brain line with human GALC G270D), HMU-beta-Gal fluorescence, 48 h; series mostly up to 57.5 µM; activation: at the top concentration
Method in brief: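 Brain-derived Twitcher mouse 145M-Twi cells stably expressing human GALC-G270D or wild-type GALC, treated live, then residual GALC activity read by fluorescence of HMU-b-Gal substrate (0.1 mM final) in citrate-phosphate buffer pH 5.2 with sodium taurocholate. Signal increase indicates enhancement.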

Sequence of UniProt P54803 (P54803 whole entry, looked up): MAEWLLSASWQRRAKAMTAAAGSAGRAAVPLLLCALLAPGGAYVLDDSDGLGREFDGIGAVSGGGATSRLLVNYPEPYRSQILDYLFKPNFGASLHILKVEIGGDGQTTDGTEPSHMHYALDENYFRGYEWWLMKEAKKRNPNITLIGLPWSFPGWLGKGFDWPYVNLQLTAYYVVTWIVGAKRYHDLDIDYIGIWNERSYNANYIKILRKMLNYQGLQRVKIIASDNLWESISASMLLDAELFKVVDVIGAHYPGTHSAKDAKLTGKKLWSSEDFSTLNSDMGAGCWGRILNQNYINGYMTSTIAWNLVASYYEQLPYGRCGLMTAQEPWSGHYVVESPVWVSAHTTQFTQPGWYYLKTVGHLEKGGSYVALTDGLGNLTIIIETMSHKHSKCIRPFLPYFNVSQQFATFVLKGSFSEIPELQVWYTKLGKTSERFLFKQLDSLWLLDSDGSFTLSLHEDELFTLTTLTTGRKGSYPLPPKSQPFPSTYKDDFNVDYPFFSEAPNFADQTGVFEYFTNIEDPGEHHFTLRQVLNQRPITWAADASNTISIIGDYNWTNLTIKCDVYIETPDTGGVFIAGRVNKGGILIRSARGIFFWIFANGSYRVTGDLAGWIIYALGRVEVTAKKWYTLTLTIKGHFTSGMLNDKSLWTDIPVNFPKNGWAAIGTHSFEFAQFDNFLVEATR

activation, inactive:
COc1ccc(S(=O)(=O)N(CC(=O)Nc2cccnc2)c2ccc(Cl)cc2)cc1 -9.52%
COc1ccc(CNC(=O)Cn2c(=O)cc(-c3ccccc3)c3c(C)nn(C)c32)cc1 -3.32%
COc1ccc(NC(=O)Cn2c(=O)ccc3cc(S(=O)(=O)N4CCCC4)ccc32)cc1Cl 0.457%
Clc1cccc(-n2ncc3c(NCCCn4ccnc4)ncnc32)c1 -8.27%
Cc1cccc(N2CCN(C(=O)Cn3nc(Cc4cccnc4)c4ccccc4c3=O)CC2)c1C -7.22%
O=C(CCOc1ccccc1)N(Cc1cccnc1)c1nc2c(F)cccc2s1 -25.1%
CCCCn1c(NCc2ccc(N(C)C)cc2)nc2ccccc21 -8.5%
O=C(O)Cn1ccc2cc(S(=O)(=O)N3CCCCCC3)ccc21 -4.62%
COc1ccc(CNC(=O)COCc2cc(-c3cccs3)on2)cc1 -12%
O=C(Nc1ccc(Cl)c(C(F)(F)F)c1)C1CCN(S(=O)(=O)c2cccc3nonc23)CC1 -5.71%
Cc1cccn2c(=O)c(C(=O)NCCc3ccc(S(N)(=O)=O)cc3)c(O)nc12 -9.24%
Cc1ccccc1CSc1cn(CC(=O)N2CCCCCC2)c2ccccc12 -16.6%
COC(=O)c1scc(-c2ccc(C)cc2)c1S(=O)(=O)N1CCN(c2ccc(C(C)=O)cc2)CC1 -10.1%
Cc1ccc(Cl)cc1N1CCN(C(=O)Cn2cnc3sc(C)c(S(=O)(=O)N4CCC(C)CC4)c3c2=O)CC1 -2.54%
Cc1nc2nc(NCc3ccc(Cl)cc3)[nH]n2c(=O)c1Cc1ccccc1 2.69%
COc1ccc(C2=CC(c3ccccc3Cl)n3nc(-c4ccc(Cl)cc4)nc3N2)cc1 (stereo not given) 2.32%
CCOC(=O)c1c(C)oc2nc(C)nc(NCc3ccc(F)cc3)c12 -11.9%
CCCn1c(CCC(=O)Nc2ccc(OCC)cc2)nc2cccnc21 -27.7%
Cc1ccc(-n2c(=O)c3c(C)c(C)sc3n(CC(=O)NCc3ccccc3)c2=O)cc1C -9.68%
CC1CCc2c(sc(NC(=O)C3c4ccccc4Oc4ccccc43)c2C#N)C1 (stereo not given) -2.19%
Cc1ccc(CNC(=O)CCCn2c(=O)c3ccccc3n(CC(=O)Nc3ccc(C)c(C)c3)c2=O)cc1 -10.7%
CCOc1ccc(CCNC(=O)CCCn2c(=O)c3cccn3c3ccccc32)cc1 -0.163%
COc1ccc(C(=O)Nc2nnc(SCc3cc(=O)c4cc(C)cc(C)c4[nH]3)s2)cc1 -10.5%
CCc1ccccc1NC(=O)CCNS(=O)(=O)c1ccc2c(c1)CCN2C(=O)C1CC1 -29.4%
Cn1c(=O)c2c(nc(SCC(=O)Nc3ccccc3F)n2Cc2ccc(Cl)cc2)n(C)c1=O -18.3%
Cc1ccc(-n2ncc3c(NCCC4=CCCCC4)ncnc32)cc1 -3.18%
COC(=O)NCC(c1cccnc1)N1CCN(c2ccc(F)cc2)CC1 (stereo not given) -3.08%
Cc1ccc(Cl)cc1NC(=O)C(C)n1nc(-c2ccccc2)ccc1=O (stereo not given) -7.55%
Cc1c(C(=O)N2CCC(c3nc4ccccc4s3)CC2)oc2ccc(Cl)cc12 -5.13%
Oc1c(C(c2ccccc2F)N2CCN(Cc3ccccc3)CC2)sc2nc(-c3ccco3)nn12 (stereo not given) -21.1%
CC1CCN(CCCC(=O)c2ccc(F)cc2)CC1 -21.2%
CCNC(=O)c1c(NC(=O)Cc2coc3cc(C)cc(C)c23)sc2c1CCCC2 -15.8%
COc1ccccc1N1CCN(S(=O)(=O)c2c(C)sc3ncn(CC(=O)N(C)c4ccc(Cl)cc4)c(=O)c23)CC1 -10.1%
COCCn1c(=NC(=O)c2ccc3c(c2)OCCO3)sc2cc(C(=O)OC)ccc21 -12.9%
COc1ccc(C(=O)OC2=C(C(=O)c3ccccc3)N(C)S(=O)(=O)c3ccccc32)cc1OC -25.3%
Cc1ccc(Cl)cc1NC(=O)Cn1c(=O)oc2cc(S(=O)(=O)N3CCCC3)ccc21 -20.2%
Cc1ccc2c(CC(=O)Nc3ccc(S(=O)(=O)N4CCCCC4)cc3)coc2c1 -14.6%
Cc1ccc(NC(=O)c2cc(-c3ccc(Br)s3)nc3ccccc23)cc1F -6.48%
Cc1cc(C)c2c(=O)nc(SCc3ccccc3C)n(C3CC3)c2n1 -10.3%
Nc1ccc(S(N)(=O)=O)cc1 -11.4%
CCOc1ccccc1N(C)C(=O)C1CCCN(c2ncnc3c2nc2n3CCCCC2)C1 (stereo not given) -21.7%
Cc1ccc(-n2ncc3c(Nc4cccc(C)c4C)ncnc32)cc1 -18%
CCOc1ccc(CNC(=O)Cn2cc3c(n2)-c2c(oc(C(=O)N4CCOCC4)c2C)CC3)cc1 5.01%
COc1ccccc1N1CCN(CCCNC(=O)c2cnn(-c3cccc(Cl)c3)c2C2CCN(C(=O)OC(C)(C)C)CC2)CC1 -21.4%
Cc1ccc(CN2C(=O)C3(c4ccccc42)N(c2cccc(F)c2)C(=O)CS3(=O)=O)cc1 (stereo not given) -12.8%
CCN1CCC[C@H]1CNC(=O)c1cc(S(N)(=O)=O)ccc1OC -6.79%
Cc1ccc(OCc2ccc(-c3nc(C#N)c(NCc4cccnc4)o3)o2)cc1 -4.51%
CCCCN(CC)CCNC(=O)c1cn(C)c(=O)c2c1c1ccccc1n2C -7.16%
CCc1cccc(-n2nnc(-c3nsc(NC(=O)c4cccs4)n3)c2C)c1 -15.7%
CC(=O)Nc1ccc2nc(-c3cc(C)ccc3C)[nH]c2c1 -16.7%
CCOC(=O)c1c(C)c(-c2ccccc2)n(CC(=O)Nc2cc(C)ccc2OC)c1C -8.94%
Cc1ccccc1CN1CCC(CNc2ncnc3onc(-c4ccc(F)cc4)c23)CC1 2.16%
COc1cc(NC(=O)NC(C)c2c(-n3cccc3)sc3c2CCCC3)cc(OC)c1OC (stereo not given) -17.8%
CCOC(=O)c1c(C)[nH]c(CCC(=O)NC(C)c2ccccc2)c1C (stereo not given) -11.3%
CCN(CC)CCCNc1sc(S(=O)(=O)c2ccccc2)nc1S(=O)(=O)c1ccc(Cl)cc1 -16.9%
COc1ccc(C)cc1NC(=O)NC(C)c1c(-n2cccc2)sc(C)c1C (stereo not given) 1.01%
CCN(C(=O)c1sc2nc3n(c(=O)c2c1C)CCCCC3)c1ccc(OC)cc1 -2.23%
CCOC(=O)c1cn(CC(=O)Nc2ccc(OC)cc2OC)nn1 -10.3%
CCOc1ccc(CCNC(=O)c2ccc3c(c2)N(Cc2ccc(C)cc2)CCS3)cc1 -13.5%
O=C(C1CCCN(S(=O)(=O)c2ccc(Br)s2)C1)N1CCN(c2ccccc2F)CC1 (stereo not given) -7.26%
Fc1ccc(Nc2ncnc3onc(-c4ccc(Cl)cc4)c23)cc1Cl -11.6%
Cc1c(C(=O)Nc2ccc(-n3c(C)nc4ccccc4c3=O)cc2)cccc1[N+](=O)[O-] -17.2%
COc1ccc(C2C(C(=O)Nc3ccccc3)=C(C)Nc3nc(SCC(=O)c4ccc(C)cc4)nn32)cc1 (stereo not given) -11.7%
CC1=C(c2ccc(F)cc2)S(=O)(=O)N=C1N1CCC(C(=O)NCCc2ccccc2C)CC1 -26%
CC(C)Cc1ccc(S(=O)(=O)N2CCN(Cc3noc(CCC(=O)N4CCCCC4)n3)CC2)cc1 -18.9%
CCCC(=O)Nc1nnc(S(=O)(=O)N2CCCCCC2)s1 -12.2%
COC(=O)C(NC(=O)CCc1c(C)nc2c(-c3ccccc3)c(C)nn2c1C)C(C)C (stereo not given) -6.66%
Cc1ccc(Cl)cc1NC(=O)Cn1c(=O)n(CCC(=O)NCc2ccc3c(c2)OCO3)c(=O)c2sccc21 -7.67%
Cc1cc2nn(-c3ccc(F)cc3)nc2cc1NC(=O)c1cccc2c(Cl)cccc12 -20.8%
CCOc1cc2c(cc1OCC)C(CC(=O)O)N(C(=O)Nc1ccccc1C(F)(F)F)CC2 (stereo not given) -10.4%
Cc1cc(C)nc(-n2nc(C)c3c2NC(=O)CC3c2cccc(O)c2)n1 (stereo not given) -16.3%
COc1cc(OC)c(NC(=O)Nc2cccc(OCc3cc(=O)n4ccccc4n3)c2)cc1Cl -9.44%
COc1ccc(-n2cc(-c3ccccc3)c3c(Nc4ccc(OC)c(OC)c4)ncnc32)cc1 -15.3%
CCn1c(C)c(C)c2cc(C(=O)NCc3ccc(F)cc3)ccc21 -11.9%
CCOC(=O)c1ccc2c(c1)N(Cc1ccc(F)cc1Cl)C(=O)c1ccccc1S2(=O)=O -8.91%
Cc1ccc(CNC(=O)c2nc(SCc3ccccc3C)ncc2Cl)cc1 -14.2%
Cc1noc(-c2ccc(NC(C)c3ccccc3)c([N+](=O)[O-])c2)n1 (stereo not given) -15.2%
CCOC(=O)CC(=O)CSc1nc2ccsc2c(=O)n1Cc1ccccc1 -38.2%
CCC(=O)N1CCc2cc(Br)cc(S(=O)(=O)N3CCN(c4ccccc4OC)CC3)c21 -5.74%
COc1ccccc1NC(=O)c1ccc(CN2C(=O)C(C)=C(c3ccc(C)c(C)c3)S2(=O)=O)cc1 -10.6%
CC1(c2ccccc2)CC(C)(C)N(C(=O)c2cccc(Cl)c2)c2ccccc21 (stereo not given) -7.06%
Cc1cc(C)cc(-n2c(SCC(=O)N3CCOCC3)nc3c([nH]c4ccccc43)c2=O)c1 -14.1%
Cc1ccc(CCNS(=O)(=O)c2c(C)nc3sc(C)c(C)n3c2=O)cc1 -12.8%
COc1cccc(-c2nnc(-c3ccccc3NC(=O)c3ccc(F)cc3F)o2)c1 -12.7%
Cc1ccc(CNC(=O)c2ccc(CSCc3cccc(C)c3)o2)cc1 3.27%
COc1cccc(NC(=O)c2ccc3c(c2)CCN3S(C)(=O)=O)c1 -9.39%
CC1CCN(S(=O)(=O)c2ccc3c(c2)N(CC(=O)NCCc2ccccc2)C(=O)CO3)CC1 0.692%
Cc1ccc(NS(=O)(=O)c2ccc3[nH]c4c(c3c2)CCCC4)cc1N(C)C -1.85%
Cc1cccc(NC(=O)Cn2c(=O)nc(-c3ccccc3)c3ccccc32)c1C -4.77%
CCOc1ccc(N(CC(=O)NCc2ccc(C)cc2)S(=O)(=O)c2c(C)noc2C)cc1 -0.415%
O=C(c1ccc(CSc2nc3ccncc3n2Cc2cccc(F)c2)cc1)N1CCCCC1 -13.6%
CCOC(=O)c1c(C)oc2ccc(N(C(=O)c3ccncc3)S(=O)(=O)c3ccc(Br)cc3)cc12 -38%
CC1=C(c2ccc(C(C)C)cc2)S(=O)(=O)NC1=NCc1ccccc1Br -6.45%
COc1cc(NC(=O)CN2C(=O)CN(C)C(=O)c3ccccc32)cc(OC)c1OC -14.1%
COc1ccc(C)cc1NC(=O)C1CCCN(S(=O)(=O)c2ccc3[nH]c(=O)ccc3c2)C1 (stereo not given) -3.69%
